# Data taken from PubChem BioAssay AID1345083 (National Center for Advancing Translational Sciences (NCATS), 2018).
# In all, about 94,000 compounds went through this assay and about 6,200 (6.6%) were called active. Inconclusive results, whose numbers are uncertain, are shown with a selection of clear calls. The call rests on the fitted dose curve; in most records, active means well fitted inhibition curve with a large enough effect; inconclusive means small, poorly fitted or top-dose-only effect; inactive means flat fitted curve, though single readings scatter. Potencies beside an inconclusive call are fits to weak or partial responses and may not hold up.
# Experiment: Cytotoxic Profiling in HEK 293 Cell Line of Diverse Libraries Using Quantitative High-Throughput Screening; further: nearly all actives have a fitted effect of over 60% in size
# Conditions: HEK 293 viability, ATP luminescence (CellTiter-Glo), 48-72 h; series mostly up to 115 µM
# Summary of the method: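 Pintool-delivered compounds were incubated with HEK 293 cells (250 cells/well) at 37 degree Celsius for 48 or 72 hr. ATP-dependent luminescence (CellTiter-Glo) then reported remaining viable cells.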
# Potency means the concentration at half of the fitted maximal effect; tags describe the fitted curve by direction and shape.
row,Compound,Potency
1,O=C(NCc1ccc(F)cc1)c1noc(-c2ccc(F)cc2)n1,"inconclusive: 100 µM [inhibitor, single point]"
2,CN(Cc1ccccc1C(F)(F)F)C(=O)Nc1ccccc1,"inconclusive: 126 µM [inhibitor, single point]"
3,COc1ccc2c(c1)nc1n2[C@@H](CNC(=O)c2ccc(Cl)cc2)COC1,"inconclusive: 100 µM [inhibitor, partial curve]"
4,C[S+](=O)([O-])c1ccc(-c2ncc3c(n2)OCCN(c2ccccc2)C3=O)cc1,"inconclusive: 79.4 µM [inhibitor, partial curve]"
5,Cc1cc2nc3n(c(=O)c2n1CC(=O)NCc1ccccc1F)CCCCC3,"inconclusive: 50.1 µM [inhibitor, partial curve, poor fit]"
6,Cc1cccc(N(C)C(=O)Cn2ccn3nc(-c4ccc(F)cc4)c(CO)c3c2=O)c1,"inconclusive: 70.8 µM [inhibitor, single point]"
7,CS(=O)(=O)N1CCCN(Cc2ccccc2C#N)CCNC(=O)CC1c1ccccc1 (stereo unspecified),"inconclusive: 89.1 µM [inhibitor, single point]"
8,Cc1ccc(CNC(=O)c2ccc(OC3CCN(S(C)(=O)=O)CC3)c(Cl)c2)s1,"inconclusive: 50.1 µM [inhibitor, partial curve, poor fit]"
9,O=C(NCCc1ccc(Cl)cc1)c1nc2sccn2c1-c1ccc(F)cc1,"inconclusive: 44.7 µM [inhibitor, partial curve, poor fit]"
10,CCN(CC)C(=O)C(C)[C@@H]1CC[C@@]2(C)CC[C@H](NC(=O)c3cnccn3)[C@@H](C)[C@@H]2[C@H]1O (stereo partly specified),"inconclusive: 100 µM [inhibitor, partial curve]"
11,COc1cccc(C(=O)N2CCN(c3ccc4ncc(-c5cccc(C(F)(F)F)c5)n4n3)CC2)c1,"inconclusive: 14.1 µM [inhibitor, full curve, poor fit]"
12,O=C(CC1CCCCC1)NC1CCN(C(=O)N2CC3CC(C2)[C@H]2CCCC(=O)N2C3)CC1 (stereo partly specified),inactive
13,COc1ccc(CC(=O)N2CCCN(c3cc(-c4ccc(Cl)cc4)[nH]n3)CC2)cc1,active: 39.8 µM
14,COc1ncccc1CN1CC[C@@H]2OCC(=O)N(c3ccccc3)[C@H]2CC1,"inconclusive: 126 µM [inhibitor, single point]"
15,Cc1ncc2n1C(=O)N(C1CCN(Cc3ccccn3)CC1)C2,"inconclusive: 70.8 µM [inhibitor, partial curve]"
16,COc1ccc(C(=O)N2CCC[C@H]2c2nc(-c3ccc(C)cc3)no2)cc1F,"inconclusive: 44.7 µM [inhibitor, partial curve, poor fit]"
